Results on 22 molecules are retold here after PMC12136788.

Some of the results follow.

B1: chr10:82349929:82349930:+_ENSMUSG00000020250_ENSMUST00000020484|mus_hu|FALSE|FALSE (ssRNA)
RNA: GGGAGUUCUACAGUCCGACGAUCAUAACAUUUGUUGUUAUCUCUUGACGGAAUCGUCCAUUCCAAUGGCCAAAAGUAACUAUGGUAAACCUCAAUAUUUUCUUCCCCAAACUUCUCCACAGCUUUCUCCUCAGAAAGGCCACACAACAGAGGAUUGAGCAUCA
B2: 4497865_4497985_244_3pUTR_ENSMUSG00000004961_ENSMUST00000065957|mouse|control|control (ssRNA)
RNA: GGGAGUUCUACAGUCCGACGAUCAGGUGUCUUAGGCGCUGGAGACCCCAGGGUCGGGGGUUCCGGGAACAUGGCGUCGGGGUCCUGCGGUGCUUCCUGCAGAGGUACCCAAAUACUCUAUCCCCACCCCACCCCACUCCUACCCAACAGAGGAUUGAGCAUCA
B3: chr8:95530139:95530140:-_ENSG00000164944_ENST00000437199|hu_mus|FALSE|FALSE (ssRNA)
RNA: GGGAGUUCUACAGUCCGACGAUCGACACCGCUGGAAGACUGAGCCACCACCAGCGUGAGUACGCAUGCGUAAUUAUAAGCUACUGACUUCUUAGACUUGGAAUCGCCUAGGGCUUCUUUGGAAUAGUACUCCAUUAGAGUAAUCAACAGAGGAUUGAGCAUCA
B4: 197562579_197566197_1241_3pUTR_ENSG00000186001_ENST00000438796|human|control|control (ssRNA)
RNA: GGGAGUUCUACAGUCCGACGAUCUGAACCCUCAUGAGAGAUUCGCCGCUGUUCAAUAUACGCCAUAAACUGUGAACUAAGGCUGUCUGGGUCUGGUCCCUUGGGCUGUCUCACCUCGGCCUCCUCUUCCUCUGCGGUGCAGCUCAACAGAGGAUUGAGCAUCA
B5: chr12:72289710:72289711:+_ENSMUSG00000034601_ENSMUST00000129376|mus_hu|FALSE|FALSE (ssRNA)
RNA: GGGAGUUCUACAGUCCGACGAUCAGGUGAGUUAGGGUUCUCUUCUUCCAGUGGCAGGUCUCCAUCACCCCAUGGCUUGGGAAGCUCUGGGCUUGAUACCUUCAAUUUAUCAAUGGAAAUAUCUGACAAAGUUGGGGUAAAAACCAACAGAGGAUUGAGCAUCA
B6: chr9:14812383:14812384:-_ENSMUSG00000031934_ENSMUST00000164273|mus_mus|mus_mus_mus_hu_True|98_108 (ssRNA)
RNA: GGGAGUUCUACAGUCCGACGAUCAUAGCUCAAGUAGAUACAUGCCAACAGUAUAAUGAUGAGUGUCAGCAGGCGGCAGCUAAUGUACUUGAUGAUUAAAUUAUUAGAAUUUUUCUUUGUCUUCAAGUACUGCUCCACAAUUGGCAACAGAGGAUUGAGCAUCA
B7: 110815297_110815417_1300_CDS_ENSG00000196510_ENST00000455511|human|control|control (ssRNA)
RNA: GGGAGUUCUACAGUCCGACGAUCUUCAAGACAAACGGUGGCUAAAAGGGUAAGGGUCUGUGCAUUUGCUCCCAGAGUUUUGUAAACGUUGUUAGCCAUUACCAUUGCUUCUCGAAUACUGUUGGAGGCUAAGUAACAUUCGAUCAACAGAGGAUUGAGCAUCA
B8: chr2:219093530:219093531:+_ENSG00000163466_ENST00000315717|hu_mus|FALSE|FALSE (ssRNA)
RNA: GGGAGUUCUACAGUCCGACGAUCCACUCUCUUUAACAACUCAUCAGCUCCAUGUGCCUGAAGUUCCUUGUAGAAUUUCAAAGAAAUACUGACCAUCACUUUUGUUUUGUCUCCAUUAGGAUUUGAAAUAUGAUAAAGGACGCCCAACAGAGGAUUGAGCAUCA
B9: chr3:45748292:45748293:+_ENSG00000211456_ENST00000389061|hu_hu|motif|central (ssRNA)
RNA: GGGAGUUCUACAGUCCGACGAUCUGCUUUCCAGACUACAUGACUGAAAAAUUCACCUACUUUUAUCUUUUUGGUAAUGACGGUAAGAUAAUUACCUGCCACCAGAUGGAUUGUGCCCAGUAUACCAAAUAUUGGUCUUGUGACCAACAGAGGAUUGAGCAUCA
B10: chr3:10015032:10015033:+_ENSMUSG00000027533_ENSMUST00000029046|mus_mus|mus_mus_mus_hu_True|28_58 (ssRNA)
RNA: GGGAGUUCUACAGUCCGACGAUCGUUUUUACCAUCACAAGUGAUGAUACAAUCUGGCUUGGCCAUUGCGCCCAUUUUCCUAAGAGCUAUUCCCACUCCUAGCUCCUUCAUGUACUCAUCAAAGCCUUUGCUGUCCACCAGGCGCAACAGAGGAUUGAGCAUCA
B11: chr10:20042908:20042909:+_ENSMUSG00000037608_ENSMUST00000043881|mus_mus|FALSE|FALSE (ssRNA)
RNA: GGGAGUUCUACAGUCCGACGAUCGGACCGUGACCGACCUCGUCUAGGACUCCUAGAGUGCCUUCUAUUCCAGACAGGUCUAUAGCCACCUCGAUGGUAUCUCCCUCCUCCUCCUUGAUAAUACCCUCUACCCCUUCCUCUGUACAACAGAGGAUUGAGCAUCA
B12: chr16:17153567:17153568:-_ENSMUSG00000038965_ENSMUST00000090192|mus_mus|motif|central (ssRNA)
RNA: GGGAGUUCUACAGUCCGACGAUCAAGCGCACUGUAUUCUCUGCUGGCAGACCCUCCCUCCAAGGUCACCACAAACCUGCGGUAACAGGUUCCCUGCAGAGACCCAGCCAGCACAGUCUGACUACAGAUAGGGACCAUGGGGGUCAACAGAGGAUUGAGCAUCA
B13: chr7:138125181:138125182:+_ENSMUSG00000006205_ENSMUST00000006367|mus_hu|FALSE|FALSE (ssRNA)
RNA: GGGAGUUCUACAGUCCGACGAUCGAUUCCAGCUGUCACUUUCAAAGUGUUAAUUCCAAUCACUUCACCGUCCAGGUUUACUAACGGGCCUCCCGAGUUUCCAUAGUUGAUGAUGGCGUCGGUCUGGAUGUAGUCCAUGUCUGACAACAGAGGAUUGAGCAUCA
B14: 77506730_77523245_2100_3pUTR_ENSMUSG00000037857_ENSMUST00000100802|mouse|control|control (ssRNA)
RNA: GGGAGUUCUACAGUCCGACGAUCCUGGUCCUUCAUUGAUCUGGACUAUCCAUGGCUUCAUUGUAAGUGAUUAUCCUUUUGGGAUCUUGCUUCUGCAAAUUCCAUAUAGAUUCCAUUUCUUUAGUGUGAUAUACAAUAGCAGCCCAACAGAGGAUUGAGCAUCA
B15: chr12:16048344:16048345:+_ENSG00000023734_ENST00000419869|hu_hu|hu_hu_hu_mus_True|38_98 (ssRNA)
RNA: GGGAGUUCUACAGUCCGACGAUCAGAUCGUCCAUAAGUUAUAACCAAAAUCUCUCCUUCAGGAAUAUACUCCAUGCUGCUAACAGACAUAUUAAAAUUUAGAGAUUUCACUUCUGUCAUUGUGGCAUGAUCCCAGAGCCGAACCAACAGAGGAUUGAGCAUCA
B16: chr11:69638232:69638233:-_ENSMUSG00000051790_ENSMUST00000056484|mus_hu|FALSE|FALSE (ssRNA)
RNA: GGGAGUUCUACAGUCCGACGAUCGGGGAGGAGGUGGGAGAAGGGAUGGGGGAACAGGAUUCUGGGGUACAAAUCCCCACAGAAAUUCUUUGAGGGGGCCAACAUGUGUCCAGGGUGGCAAAAAAAAACCUCACCCUGCACAUGCAACAGAGGAUUGAGCAUCA
B17: chr17:80560191:80560192:+_ENSG00000141568_ENST00000335255|hu_hu|FALSE|FALSE (ssRNA)
RNA: GGGAGUUCUACAGUCCGACGAUCUCAGAGUGGAAAAUUUUGCCAGGGACAAAGUCAACACAAAGAAACAAACAACAAAAAAUAGCCAGAAAGAGAACAGUUAAGUGCAGCUCGGUGAGUCCCGGCAGUUCCUUCCCGGCACUGCAACAGAGGAUUGAGCAUCA
B18: chr10:33190432:33190433:-_ENSG00000150093_ENST00000302278|hu_mus|hu_hu_hu_mus_True|68_68 (ssRNA)
RNA: GGGAGUUCUACAGUCCGACGAUCUACAUUUUCCAAACCUGCAUGUGAAUAAAACCCUGGCCACAGAGCCCUAAAGCUACCCUACUGUGACUAAGAUGCUGCUGCUGUGAGCUUGGUGUUGCAAAAUCCGCCUGAGUAGGAUUCCAACAGAGGAUUGAGCAUCA
B19: 2817066_2817186_7146_CDS_ENSG00000167978_ENST00000301740|human|control|control (ssRNA)
RNA: GGGAGUUCUACAGUCCGACGAUCACUCAUGAGAGGCACCGGGGCUGGAACCUGGGACAUUCUUGCAGCAAGGCCAGCAGCAGACAUGGACGGAGGAGGCCGAGCGGUGCCAAGACUGAUAGCUGUCAGGGCAAGUGCAAUCCUCAACAGAGGAUUGAGCAUCA
B20: chr14:53113150:53113151:-_ENSG00000197930_ENST00000395686|hu_mus|FALSE|FALSE (ssRNA)
RNA: GGGAGUUCUACAGUCCGACGAUCGCCCCACAGGCGGCACUUGAAGCAGCCAACACAGUCCAUGAUUCUUGAAAUGUUCCUAAAGUGUAGCCGGAAGUCCUCCUUUAGUUUAUGUGCUUCGUUUUUAUCCCCAGCAAAAAAAGACAACAGAGGAUUGAGCAUCA
B21: 59272101_59272221_1014_CDS_ENSMUSG00000026024_ENSMUST00000027178|mouse|control|control (ssRNA)
RNA: GGGAGUUCUACAGUCCGACGAUCGGAAAUGGCACUGCCACUUGUGGUCUGACUGCUUCCCAUGUUCAGUUCAGCUUCUACCACCGUGUUCUCAAACACCUCUCCCUGCUCAUCCAGUGCCUCUGGGUGAGGGCUGGGAGCAGGCAACAGAGGAUUGAGCAUCA
B22: 222889140_222892615_565_CDS_ENSG00000162819_ENST00000340934|human|control|control (ssRNA)
RNA: GGGAGUUCUACAGUCCGACGAUCAUUUAUGAAACCUUGUAAAAGUGAGAAAUAUGAAUCUGCUGCAUUCUUCAUCAUUUCUGGAUUACAGCUCAAAUCAGUGAACAGUUCAAGGAGUCGUGCCCUGGAUGACCUCAAGUCAUUCAACAGAGGAUUGAGCAUCA

The experiment addresses T1, UNK ZnF1-3 (human, UniProt Q9C0B0 31-174).
T1 sequence: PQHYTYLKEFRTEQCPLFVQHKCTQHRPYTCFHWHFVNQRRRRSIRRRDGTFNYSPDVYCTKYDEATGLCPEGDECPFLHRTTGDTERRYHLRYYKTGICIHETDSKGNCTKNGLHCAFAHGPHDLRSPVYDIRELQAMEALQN
The experiment can be described thus: nsRBNS (natural sequence RNA bind-n-seq); RBNS binding buffer (assumed for nsRBNS): 25 mM Tris pH 7.5, 150 mM KCl, 3 mM MgCl2, 0.01% Triton X-100, 500 ug/ml BSA, 20 U/ml SUPERase-In, 4 C; UNK is unkempt and MSI1 is Musashi-1; names of the RNAs are library labels; protein concentration not given here; high values mean tight binding.
In turn, B1 came in with a binding signal of 1.02 enrichment R.

B2: the binding signal turned out to be 0.875 enrichment R.

Consider B3, for which the binding signal worked out at 1.15 enrichment R.

B4 showed a binding signal of 0.77 enrichment R.

For the molecule B5, the binding signal was 1.15 enrichment R.

With B6, the binding signal is 1.02 enrichment R.

As for B7, the binding signal was determined as 0.993 enrichment R.

The molecule B8 had a binding signal of 1.67 enrichment R.

On to B9, for which the binding signal is 2.03 enrichment R.

Take B10: the binding signal worked out at 0.643 enrichment R.

In turn, B11 had a binding signal of 0.902 enrichment R.

Consider B12, for which the binding signal was found to be 0.958 enrichment R.

For the molecule B13, the binding signal was determined as 0.659 enrichment R.

The molecule B14 returned a binding signal of 0.371 enrichment R.

As to B15, the binding signal amounted to 1.34 enrichment R.

For B16, the binding signal is 1.76 enrichment R.

B17 showed a binding signal of 1.73 enrichment R.

On to B18, for which the binding signal is 0.96 enrichment R.

Turning to B19, the binding signal is 1.28 enrichment R.

Take B20: the binding signal amounted to 1.59 enrichment R.

Molecule B21 returned a binding signal of 0.684 enrichment R.

In turn, B22 yielded a binding signal of 0.706 enrichment R.
